# Test results as given in the RNAGym collection of RNA variant scans (doi:10.1093/nar/gkz1192).
# The source gives no read counts; variants with many changes may rest on few reads.
# B1: CPEB3 Ribozyme (parent)
# chain: UAACAGGGGGCCACAGCAGAAGCGUUCACGUCGCAGCCCCUGUCAGAUUCUGGUGAAUCUGCGAAUUCUGCUGUAUAUCUC
# Variants of: B1
# Test: self-cleavage, relative activity (ratio to wild type); higher = more cleavage; in vitro, sequencing
# Outline: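 Libraries of CPEB3 self-cleaving ribozyme mutants came from rounds of error-prone PCR and carried barcodes, which DNA sequencing matched to variants. In vitro transcription used T7 RNA polymerase at 37°C for 5 hours, with a further 15 min in DNase I before EDTA stopped the reaction; the ribozymes cleaved during both steps. The RNA was reverse transcribed with template switching and sequenced on Illumina. Relative activity is the cleaved/total read fraction of a variant divided by that of the unmutated ribozyme, averaged over three batches with at least 5 reads.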
row,Variant,self-cleavage
1,UAACAGGGGGCCACAGCUGAAGCGUUCACGUCGCAGCCCCUGUCAGACUCUGGUGAAUCUGCGAAUUCCGCUGUAUAUCUC [A18U U48C U69C],0.18
2,UAACAGGGGGCCACAGCAUAAGCGUUCGCGUCGCACCCCCUGUCAGAUUCUGGUGAAUCUGCGAAUUCUGCUGUAUAUCUC [G19U A28G G36C],0.14
3,UAACAGGGGGCCACAGCAUAGGCGUUCACGUCGCAGCCCCUGUCAGAUUCUGGUGAAUCUGCGAAUUCUGGUGUAUAUCUC [G19U A21G C71G],0.08
4,UAACAGGGGGCCACAGCUGAAGCGUUCACGUCGCAGCCCCUGCCAGAUUCUGGUGAAUCUGCGAAUUCUGCUGUAAAUCUC [A18U U43C U76A],0.14
5,UAACAGGGGGCCACAGCACAAGCGUUCCCGUCGCAGCCACUGUCAGAUUCUGGUGAAUCUGCGAAUUCUGCUGUAUAUCUC [G19C A28C C39A],0.09
6,UAACAGGGGGCCACAGCAUGAGCGUACUCGUCGCAGCCCCCGUCAGAUUCUGGCGAAUCUGCGAAUUGUGCUGUAUAUCUC [G19U A20G U26A A28U U41C U54C C68G],0.08
7,UAACAGGGGGCCACAGCUGAAGCGUUCACGUCGCAGCCCCUGUCAGAUUCUGGUGAAUCUGCGAACUCAGCUGUAUACCUC [A18U U66C U69A U78C],0.25
8,UAACAGGGGGCCACAGCAAAAGCGUUCACGUCGCAGCCCCUGCCAGAUUCUGGUGAACCUGCGAAUUCUGCUGUAUAUCUC [G19A U43C U58C],0.18
9,UAACAGGGGGCCACAGCUGAAGCGUUCACGUCGCAGCCCCUGUCAGAUACUGGUGUAUCUGCGAAUUCUGCCGUAUAUCUC [A18U U49A A56U U72C],0.24
10,UAACAGGGGGCCACAGCAAAAGCGUUCGCGUCGCAGCCCCUGUCAGAUUCUGGCGAAUCUGCGAAUUCUGCUGUAAAUCUC [G19A A28G U54C U76A],0.05
11,UAACAGGGGGCCACAGCAAAAGCGUUCAGGUCGCAGCCCCUGUCAGAUUCUGGUGAACCUGCGAAUACUGCUGUAUAUCCC [G19A C29G U58C U67A U80C],0.15
12,UAACAGGGGGCCACAGCACAGGCGUUCACGUCGCAGCACCUGUCAGAUUCUGGUGAAUCUGCGAAUUCUGCUGUAUAUCUC [G19C A21G C38A],0.26
13,UAACAGGGGGCCACAGCUGAAGCGUUCACGUCGCAGCCCCUGUCAGAUUCUGGUGAAUCUGCGAACUCUGCUGGAUAUCUC [A18U U66C U74G],0.23
14,UAACAGGGGGCCACAGCUGAAGCGUUCACGUCGCAGCCCCUGUCAGAUUCUGGUGAAUCCGCGAAUCCUGCUGUAUACCUC [A18U U60C U67C U78C],0.06
15,UAACAGGGGGCCACAGCAAAAGCGUUCACGUUGCAGCCCCUGUCAGAUUCAGGUGAAUCCGCGAAUCCUGCUGUAUAUCUC [G19A C32U U51A U60C U67C],0.05
16,UAACAGGGGGCCACAGCAAAGGCGUACUCGUCGCAGCCCCUGUCAGAUUCUGGUGAAUCUGCGAAUUCUGCUGUAUAUCUC [G19A A21G U26A A28U],0.33
17,UAACAGGGGGCCACAGCACUAGCGUUCACGUCGCAGCCCCUGACAGAUUCUGGUGAAUCUGCGAAUUCUGCUGUAUAUCUC [G19C A20U U43A],0.23

row,Variant,self-cleavage
1,UAACAGGGGGCCACAGCUGAAGCGUUCACGUCGCAGCCCCUGUCAGAUUCUGGUGAAUCCGCGGACUCUGCUGUAUAUCUC [A18U U60C A64G U66C],0.11
2,UAACAGGGGGCCACAGCAUAUGCGCUCACGUCGCAGCCCCUGUCAGAUUCUGGGGAAUCUGCGAAUUCUGCUGUAUAUCUC [G19U A21U U25C U54G],0.16
3,UAACAGGGGGCCACAGCAAAAGCGUUCAUGUCGCAGCCCCUGUCAGAUUCUGGUGAAUCUGCGAACUCUGCUGUAUAUCUC [G19A C29U U66C],0.1
4,UAACAGGGGGCCACAGCAUAAGCGUUCACGUCGCGGCCCCUGUCAGAUCCUGGUGAAUCCGCGAAUUCUGCUGUACAUCUC [G19U A35G U49C U60C U76C],0.13
5,UAACAGGGGGCCACAGCACAAGCGUUCUCGUCGCAGCCCCUGUCAGACUCUAGUGAAUCUGCGAAUUCUGCUGUAUAUCUC [G19C A28U U48C G52A],0.23
6,UAACAGGGGGCCACAGCAUAGGCGUGCACGUCGCAGCCCCUGUCGGAUUCUUGUGAAUCUGCGAAUUCUGCUGUAUAUCUC [G19U A21G U26G A45G G52U],0.19
7,UAACAGGGGGCCACAGCAAAUGCGUUCUCGGCGCAGCCCCUGUCAGAUUCUGGUGAAUCUGCGAAUUCUGCUGUAUAUCUC [G19A A21U A28U U31G],0.08
8,UAACAGGGGGCCACAGCUGAAGCGUUCACGUCGCAGCCCCUGUCAGAUUCUGGUGAACCUGCGAAUUCUGCCGUAUAUCUC [A18U U58C U72C],0.23
9,UAACAGGGGGCCACAGCUGAAGCGUUCACGUCGCAGCCCCUGCCAGAUUCCGGUGAAUCUGCGUAUUCUGCUGUAUAUCUC [A18U U43C U51C A64U],0.13
10,UAACAGGGGGCCACAGCAAAAGCGUUCACGUCGCAGCCCCAGUCUGAUUCUGGUGGAUCUGCGAAUUCUGCAGUAUAUCUC [G19A U41A A45U A56G U72A],0.19
11,UAACAGGGGGCCACAGCAAGAGCGUUCACGUCGCAGCCCCCGUCAGAUUCUGGUGAAUCUGCGAAUUCUGCUGUAUAUCUC [G19A A20G U41C],0.37
12,UAACAGGGGGCCACAGCAAAAGCGUUCACGUCGCAGCCCCUGUCAGAUCCUGGUGAAUCCGCGAAUUCUGCUGUAUAUCUC [G19A U49C U60C],0.15
13,UAACAGGGGGCCACAGCUGAAGCGUUCACGUCGCAGCCCCUGCCAGAUUCUGGUGAAUCUGCGAAUUCUGCUGUAUAUCAC [A18U U43C U80A],0.25
14,UAACAGGGGGCCACAGCAUAUGCGUUCACGUAGCAGCCCCUGUCAAAUUCUGGUGAAUCUGCGAACUCUGCUGUAUAUCUC [G19U A21U C32A G46A U66C],0.06
15,UAACAGGGGGCCACAGCAAAAGCGUUCACGACGCAGCCACUGUCAUAUUCUGGUGAAUCUGCGAAUUCUGCUGUAUAUCAC [G19A U31A C39A G46U U80A],0.06
16,UAACAGGGGGCCACAGCACAAGCGUUCACGUCUCAGCCCCUGUCAGAUUCUGGUGAAUCUACGAGUUCUGCUGUAUAUCUC [G19C G33U G61A A65G],0.05
17,UAACAGGGGGCCACAGCUGAAGCGUUCACGUCGCAGCCCCUGUCAGACUCUGGAGAAUCUGCGAAUUCUGCUGUAUAUCUC [A18U U48C U54A],0.33
